Our source for the GI50 and TGI values is PubChem BioAssay (NCI).

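Following 48 hours of exposure in 96-well plates, responses at five concentrations were used to interpolate endpoints linearly. Here, GI50 denotes the concentration required for 50% inhibition of growth. TGI: total growth inhibition.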 Some results are limits rather than exact numbers.

The experiment concerns NCI-H322M lung. The experiment is described as follows: NCI tumour cell line growth inhibition, 48 h.

For the compound `C#C[C@]1(O)CC[C@H]2[C@@H]3CC=C4c5sc(Nc6ccc(OC)nc6)nc5CC[C@]4(C)[C@H]3CC[C@@]21C`, the GI50 was 2.36 µM and the TGI was determined as 14.9 µM.
On to `Cc1ccccc1N1CCN(C2=C(Cl)C(=O)c3ncccc3C2=O)CC1`, for which the GI50 is 22.3 µM and the TGI is greater than 100 µM.
